In the RNAGym collection of RNA variant scans (doi:10.7554/elife.90254):
The source gives no read counts; variants with many changes may rest on few reads.

B1: LINE1-full (parent)
chain: UACGUAGGUGGUUUUCCCCUGAUAGUGCUAAGGGGGCCUGGAAGUUUGGACUGGGCAGAGCUCAACACAGCGUGGCAAAGUGGCUGUGGCUAGACUGCCUCUCUGGAUUCCUCGUCACUCAGCAGGGCAUCUCUGAGAGAAAUGCC

Variants of: B1
Assay: self-cleavage, relative activity (ratio to wild type); higher = more cleavage; in vitro, sequencing; the parent is a self-cleaving ribozyme
UACGUAGGUGGUUUUCCCCUGAUAGUGCUAAGGGGGCCUGGAAGUUUGGACUGGGCAGAGCCCAACACAGCGUGGCAGAGUGGCUGUGGCUAGACUGCCUCUCUGGAUUCCUCGUCACUCAGCAGGGCAUCUCUGAGGGAAAUGCC [U62C A78G A138G] showed a self-cleavage of 0.07.
UACGUAGGUGGUUUUCCCCUGAUAGUGCUAAGGGGGCCUGGAAGUUUGGACUGGGCAGAGCCCAACACUGCGUGGCAAAGUGGCUGUGGCUAGACUGCCACCCUGGAUUCCUCGUCACUCAGCAGGGCAUCUCUGAGAGAAAUGCC [U62C A69U U100A U102C] gave a self-cleavage of 0.
Variant UACGUAGGUGGUUUUCCCCUGAUAGUGCUAAGGGGGCCUGGAAGUUUGGACUGGGCAGAGCCCAACACAGCGUGGCGAAGUGGCUGUGGCUAGACUGCCUCUCUGGAUUCCUCGUCACUCAGCUGGGCAUCUCUGAGAGAAAUGCC [U62C A77G A124U] has a self-cleavage of 0.07.
UACGUAGGUGGUUUUCCCCUGAUAGUGCUAAGGGGGCCUGGAAGUUUGGACUGGGCAGAGCCCAACACGGCGUGGCAAAGUGGCUGUGGCUAGACUGCCUCUCUGGAUUCCUCGUCACUCAGCAGGGCACCUCUGAGAGAAAUGCC [U62C A69G U130C] gave a self-cleavage of 0.15.
UACGUAGGUGGUUUUCCCCUGAUAGUGCUAAGGGGGCCUGGAAGUUUGGACUGGGCAGAGCCCAACACAGCGUGGCGAAGUGGCUGUGGCUAGACUGCCUCUCUGGAUUCCUCGUCACUCAGCAGGGCAUCUCUGAGGGAAAGGCC [U62C A77G A138G U143G] gave a self-cleavage of 0.
UACGUAGGUGGUUUUCCCCUGAUAGUGCUAAGGGGGCCUGGAAGUUUGGACUGGGCAGAGCCCAACGCAGCGUGGCAAAGUGGCUGUGGCUAGACUGCCUCUCUGGAUUCCUCGUCACUCAGCAGGGCAUCUCUGAGAGGAAUGCC [U62C A67G A140G] showed a self-cleavage of 0.17.
In the case of UACGUAGGUGGUUUUCCCCUGAUAGUGCUAAGGGGGCCUGGAAGUUUGGACUGGGCAGAGCCCAACACAGCGUGGCACAGUGGCUGUGGCUAGACUGCCUCUCUGGAUUCCUCGUCACUCAGCAGGGCAUCUCGGAGAGAAAUGCC [U62C A78C U134G], the self-cleavage is reported as 0.08.
With UACGUAGGUGGUUUUCCCCUGAUAGUGCUAAGGGGGCCUGGAAGUUUGGACUGGGCAGAGCCCAUCACAGCGUGGCAAAGUGGCUGUGGCUAGACUGCCUCUCUGGAUUCCUCGUCACUCAGCUGGGCAUCUCUGAGAGAAAUGCC [U62C A65U A124U] the self-cleavage was 0.06.
Variant UACGUAGGUGGUUUUCCCCUGAUAGUGCUAAGGGGGCCUGGAAGUUUGGACUGGGCAGAGCCCAACACAGCGUGGCAAGGUGGCUGUGGCUAGACAGCCUCCCUGGAUUCCUCGUCACUCAGCAGGGCAUCUCUGAGAGAAAUGCC [U62C A79G U96A U102C] has a self-cleavage of 0.08.
For UACGUAGGUGGUUUUCCCCUGAUAGUGCUAAGGGGGCCUGGAAGUUUGGACUGGGCAGAGCCCAACGCAGCGUGGCAAAGUGGCUGUGGCUAGGCUGCCUCUCUGGAUUCCUCGUCACUCAGCAGGGCAUCUCUGAGAGAAAUGCC [U62C A67G A94G], the self-cleavage was 0.
UACGUAGGUGGUUUUCCCCUGAUAGUGCUAAGGGGGCCUGGAAGUUUGGACUGGGCAGAGCCCAACACAGCGUGGCAAGGUGGCUGUGGCUAGACUGCCCCUCUGGAUUCCUCGUCACUCAGCAGGGCAUCUCUGAGAGAAAUGCC [U62C A79G U100C] gave a self-cleavage of 0.
Work on UACGUAGGUGGUUUUCCCCUGAUAGUGCUAAGGGGGCCUGGAAGUUUGGACUGGGCAGAGCCCAACACAGCGUGGCGAAGUGGCUGUGGCUAGGCUGCCUCUCUGGAUUCCUCGUCACUCAGCAGGGCAUCUCUGAGAGAAAUGCC [U62C A77G A94G] yielded a self-cleavage of 0.
With UACGUAGGUGGUUUUCCCCUGAUAGUGCUAAGGGGGCCUGGAAGUUUGGACUGGGCAGAGCCCAGCACAGCGUGGCAAAGUGGCUGUGGCUAGACUGCCUCUCUGGAUCCCUCGUCACUCAGCAGGGCAUCUCUGAGAGAAAUGCC [U62C A65G U109C] the self-cleavage was 0.25.
UACGUAGGUGGUUUUCCCCUGAUAGUGCUAAGGGGGCCUGGAAGUUUGGACUGGGCAGAGCCCAACGCAGCGUGGCAGAGUGGCUGUGGCUAGACUGCCUCUCUGGAUUCCUCGUCACUCAGCAGGGCAUCUCUGAGAGAAAUGCC [U62C A67G A78G] gave a self-cleavage of 0.
With UACGUAGGUGGUUUUCCCCUGAUAGUGCUAAGGGGGCCUGGAAGUUUGGACUGGGCAGAGCCCAACACAGCGUGGCAAGGUGGCUGUGGCUAGACUGCCUCUCUGGUUUCCUCGUCACUCAGCAGGGCAUCUCUGAGAGAAAUGCC [U62C A79G A107U] the self-cleavage was 0.03.
With UACGUAGGUGGUUUUCCCCUGAUAGUGCUAAGGGGGCCUGGAAGUUUGGACUGGGCAGAGCCCAACACAGCGUGGCGAAGUGGCUGUGGCUAGACUGCCUCUCUGGAUUCCUCGUCACUCAGCAGGGCAUCUCUGAGGGAGAUGCC [U62C A77G A138G A141G] the self-cleavage was 0.
UACGUAGGUGGUUUUCCCCUGAUAGUGCUAAGGGGGCCUGGAAGUUUGGACUGGGCAGAGCCCAACACAGCGUGGCAAGGUGGCUGUGGCUAGACUGCCCCUCUGGAUUCCUCGUCACUCAGCAGGGCAUCUCUGAGAGGAAUGCC [U62C A79G U100C A140G] showed a self-cleavage of 0.
In the case of UACGUAGGUGGUUUUCCCCUGAUAGUGCUAAGGGGGCCUGGAAGUUUGGACUGGGCAGAGCCCAACGCAGCGUGGCAAAGUGGCUGUGGCUAGACUGCCUCUCUGGAUUCCUCGUCACUCAGCUGGGCAUCUCUGAGAGCAAUGCC [U62C A67G A124U A140C], the self-cleavage is reported as 0.
UACGUAGGUGGUUUUCCCCUGAUAGUGCUAAGGGGGCCUGGAAGUUUGGACUGGGCAGAGCCCAACACAGCGUGGCAAGGUGACUGUGGCUAGACUGCCUCUCUGGAUUCCUCGUCACUCAGCAGGGCAUCUCUGAGAGAAAUGCC [U62C A79G G83A] gave a self-cleavage of 0.04.
For UACGUAGGUGGUUUUCCCCUGAUAGUGCUAAGGGGGCCUGGAAGUUUGGACUGGGCAGAGCCCAACACAGCGUGGCAAGGUGGCUGUGGCUAGACUGCCUCUCUGGAUUCCUCGUUACUCAGCAGGGCAUCUCUGAGAGAAAUGCC [U62C A79G C116U], the self-cleavage was 0.
